# In all, about 370,000 compounds went through this assay and about 150 (0.041%) were called active. The inconclusive results got no clear call from the source; some entries with a clear call stand among them for comparison. Calls come from the whole dose curve; as a rule, active = well fitted inhibition curve with a large enough effect; inconclusive = small, poorly fitted or top-dose-only effect; inactive = flat fitted curve, though single readings scatter. No potency is given beside an inconclusive call; the fits are too rough.
# Target: Beta-lactamase (Escherichia coli (strain K12)) (UniProt P00811)
# UniProt P00811, sequence (P00811 whole entry, looked up): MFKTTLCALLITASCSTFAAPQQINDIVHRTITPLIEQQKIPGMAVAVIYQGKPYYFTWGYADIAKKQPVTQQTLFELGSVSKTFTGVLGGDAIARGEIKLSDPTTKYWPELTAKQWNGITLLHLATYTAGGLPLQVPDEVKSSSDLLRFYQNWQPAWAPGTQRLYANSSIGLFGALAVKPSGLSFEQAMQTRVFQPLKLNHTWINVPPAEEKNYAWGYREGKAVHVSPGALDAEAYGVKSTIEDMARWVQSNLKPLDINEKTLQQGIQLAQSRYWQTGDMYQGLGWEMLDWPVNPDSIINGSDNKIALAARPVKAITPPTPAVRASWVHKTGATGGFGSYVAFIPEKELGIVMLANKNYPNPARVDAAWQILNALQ
# Experiment: qHTS Inhibitors of AmpC Beta-Lactamase (assay with detergent); note: nearly all actives have a fitted effect of over 25% in size;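 for activity change, negative = inhibition: 0% = no-compound wells and -100% = no-enzyme wells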
# Details: AmpC hydrolysis of nitrocefin, absorbance 480 nm, 0.01% Triton; activity change, negative = inhibition: at 114 µM (top of the series)
# How it was run: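 AmpC (5.3 nM in the dispensed reagent) in 20 mM phosphate pH 7.0 with 0.01% (detergent screen) or 0.0001% Triton X-100 was preincubated with compounds for 15 min at room temperature. Nitrocefin was then added from an 800 uM solution, and hydrolysis was followed at 480 nm.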
# Potency is the fitted concentration of half-maximal effect; tags give direction and shape of the fitted curve.
SMILES,"activity change, negative = inhibition",Potency
O=C(CCN1CCN(c2ccccc2F)CC1)Nc1ccc2c(c1)OCO2,inactive: -9.88%,
CCN1CCN(C(=O)Cc2ccc(C)cc2)CC1,inactive: 0.626%,
CCOc1cc(C(=S)N2CCCC2)ccc1OCC(=O)Nc1c(C)cc(C)cc1C,,"inconclusive [inhibitor, full curve, poor fit]"
CCn1cc(C(=O)N2CCc3ccccc32)c(=O)c2cc(S(=O)(=O)N3CCCCCC3)ccc21,,"inconclusive [inhibitor, full curve, poor fit]"
COc1cccc(/C=C/C(=O)c2ccc3c(c2)OCO3)c1OC,inactive: 4.4%,
COc1ccc(C(=O)N2CCCN(C)CC2)cc1S(=O)(=O)N1CCCc2ccccc21,,"inconclusive [inhibitor, single point]"
CN1CCN(c2cc(=O)n(-c3ccc(Cl)cc3)c(=O)[nH]2)CC1,,"inconclusive [inhibitor, partial curve, poor fit]"
O=C(CSc1nnc2ccccn12)Nc1ncc(Cl)cc1Cl,,"inconclusive [inhibitor, full curve, poor fit]"
O=C(NC(=S)NCCc1ccccc1)c1ccccc1,,"inconclusive [inhibitor, single point]"
N#Cc1ccsc1NC(=O)COC(=O)C1=NNC(=O)CC1,,"inconclusive [inhibitor, full curve, poor fit]"
COc1ccccc1NC(=O)CN1C(=O)CCS(=O)(=O)c2ccccc21,,"inconclusive [inhibitor, partial curve, poor fit]"
COc1ccccc1N1CCN(C(=S)Nc2cccc(C)c2)CC1,inactive: -0.716%,
O=C(CSc1ccccc1)Nc1cccnc1,,"inconclusive [inhibitor, full curve, poor fit]"
Cc1cccc(-n2nnc(-c3nc(-c4ccccc4)no3)c2N)c1C,inactive: 5.64%,
O=C(Cn1nnc2ccccc2c1=O)N1CCCc2ccccc21,,"inconclusive [inhibitor, full curve]"
CC(C)CCCCCCNC(=S)Nc1ccc(S(=O)(=O)N2CCOCC2)cc1,,"inconclusive [inhibitor, full curve]"
Cc1cc(=O)n2nc(N3CCC(C(=O)NCc4cccnc4)CC3)sc2n1,,"inconclusive [inhibitor, single point]"
COC(=O)Cc1csc(N)n1,,"inconclusive [inhibitor, partial curve]"
CCCc1nc2c([nH]1)c(=O)n(C)c(=O)n2C,,"inconclusive [inhibitor, single point]"

# Reference: PubChem BioAssay AID485294 (National Center for Advancing Translational Sciences (NCATS), 2010)
